Here are results for 40 compounds from the antibiotic and cytotoxicity screens of Wong et al. (2023).

This is one part of the list.

This test concerns HepG2. The experiment in a line: cytotoxicity call (relative viability < 0.9). Conditions: 10 µM.
Regarding `O[C@@H]1[C@@H](O)[C@H](O)OC[C@H]1O`, the cytotoxicity call is “inactive”. In the case of `Cn1cnc([N+](=O)[O-])c1Cl` it was “inactive”. Next, `O=C(C[C@H]1CC[C@H]2[C@@H](COC[C@H](O)CN2C(=O)c2ccccc2F)O1)N1CCN(c2ccccc2)CC1`: “inactive”; `COc1ccccc1NC(=O)N(C)C[C@@H]1Oc2cc(Br)ccc2S(=O)(=O)N([C@H](C)CO)C[C@@H]1C`: “inactive”; `C[N+](C)(C)CCCC[C@@H]1NC(=O)[C@@H]2C[C@H](C(=O)NCc3ccc(F)cc3)[C@H](c3cccc(OCCO)c3)N2C1=O`: “inactive”. With `COc1nc(N)nc2nc[nH]c12`, the cytotoxicity call was “inactive”. Next, `Cc1noc(C)c1NC(=O)Nc1ccc2c(c1)C(=O)N([C@H](C)CO)C[C@H](C)[C@H](CN(C)C(=O)Nc1c(C)noc1C)OCCCC[C@H](C)O2`: “inactive”. In the case of `C[C@@H]1CN([C@@H](C)CO)C(=O)c2cccc(NC(=O)NC3CCCCC3)c2O[C@@H]1CN(C)S(C)(=O)=O`, the cytotoxicity call is “inactive”. Next, `Cc1ccc(-c2ccc3c(c2)O[C@@H](CN(C)C(=O)NC(C)C)[C@@H](C)CN([C@@H](C)CO)S3(=O)=O)cc1`: “inactive”; `C=C1C(=O)C(O)[C@@H]2O[C@@H]2C1=O` (stereo not given in full): “inactive”; `COCCNC(=O)NC(=O)COC(=O)c1cccn1C`: “inactive”. On to `C[C@@H]1CN([C@@H](C)CO)C(=O)c2cc(C#CCc3ccccc3)cnc2O[C@@H]1CN(C)CC1CCOCC1`, for which the cytotoxicity call was “inactive”. Next, `COc1ccc(CN(C)C[C@H]2OCCCC[C@@H](C)Oc3ccc(NC(=O)Cc4ccccc4)cc3C(=O)N([C@H](C)CO)C[C@H]2C)cc1`: “inactive”; `C[C@@H]1CN([C@H](C)CO)C(=O)c2cc(NC(=O)CCC(F)(F)F)ccc2O[C@@H](C)CCCCO[C@H]1CN(C)C(=O)Nc1ccc2c(c1)OCO2`: “inactive”. In the case of `C[C@@H]1CCCCO[C@@H](CN(C)S(=O)(=O)c2ccccc2)[C@H](C)CN([C@@H](C)CO)C(=O)c2cc(NC(=O)Nc3cccc4ccccc34)ccc2O1` it was “inactive”; in that of `NCc1cnn(-c2ccc(F)cc2)c1`, “inactive”. For `CC(C)c1ccccc1OC[C@@H](O)CN`, the cytotoxicity call is “inactive”. Next, `CCCC[C@@H](C#N)c1ccc(F)cn1`: “inactive”; `NC(N)=O`: “inactive”; `C[C@@H]1CN([C@@H](C)CO)C(=O)c2cc(NS(=O)(=O)c3ccc(F)cc3)ccc2O[C@@H]1CN(C)S(=O)(=O)c1ccc(F)cc1`: “inactive”.

Consider `Cc1noc(C)c1NC(=O)N(C)C[C@@H]1OCCCC[C@H](C)Oc2ccc(NC(=O)Nc3cccc4ccccc34)cc2C(=O)N([C@@H](C)CO)C[C@H]1C`, for which the cytotoxicity call is “inactive”. Next, `CC(C)NC(=O)Nc1ccc2c(c1)C(=O)N([C@@H](C)CO)C[C@@H](C)[C@H](CN(C)Cc1ccccc1)OCCCC[C@H](C)O2`: “inactive”; `COc1ccc(NC(=O)Nc2ccc3c(c2)C(=O)N([C@H](C)CO)C[C@H](C)[C@H](CN(C)Cc2ccc(C(=O)Nc4ccccc4N)cc2)O3)cc1`: “inactive”; `CO[C@@H]1CN(C)C(=O)c2ccc(NC(=O)C3CC3)cc2OC[C@@H](C)N(C(=O)CN2CCOCC2)C[C@@H]1C`: “inactive”.

On to `CO[C@@H]1CN(C)C(=O)c2ccc(NC(=O)c3ccc(F)cc3)cc2OC[C@@H](C)N(C(=O)CN(C)C)C[C@@H]1C`, for which the cytotoxicity call was “inactive”. Next, `C[C@@H]1CN([C@H](C)CO)S(=O)(=O)c2ccc(C#Cc3ccncc3)cc2O[C@H]1CN(C)S(=O)(=O)c1ccccc1`: “active”; `C[C@H](CO)N1C[C@H](C)[C@H](CN(C)Cc2ccncc2)Oc2ccc(NC(=O)Nc3cccc4ccccc34)cc2C1=O`: “inactive”; `C[C@H](CO)N1C[C@H](C)[C@H](CN(C)C(=O)Nc2ccc(F)cc2)OCCCC[C@H](C)Oc2ccc(NC(=O)C3CC3)cc2C1=O`: “inactive”. As to `C[C@H](CO)N1C[C@H](C)[C@H](CN(C)S(=O)(=O)c2cn(C)cn2)Oc2ccc(N(C)C)cc2CC1=O`, the cytotoxicity call is “inactive”.

As to `O=C(Cn1nncc1COc1ccc2ccccc2c1)NS(=O)(=O)c1ccccc1OC(F)(F)F`, the cytotoxicity call was “inactive”. In the case of `CCS(=O)(=O)N1CC[C@]2(CC1)CN([C@H](CO)c1c2c2ccc(cc2n1C)OC)C(=O)c1ccc(cc1)F` it was “inactive”; in that of `C[C@@H]1CCCCO[C@@H](CN(C)Cc2ccc(Cl)c(Cl)c2)[C@H](C)CN([C@@H](C)CO)C(=O)c2cc(NC(=O)Nc3cccc4ccccc34)ccc2O1`, “inactive”. For the compound `Cc1ccc(S(=O)(=O)Nc2ccc3c(c2)C(=O)N([C@@H](C)CO)C[C@H](C)[C@H](CN(C)C(=O)Cc2ccccc2)OCCCC[C@@H](C)O3)cc1`, the cytotoxicity call was “inactive”. In the case of `Cc1ccc(S(=O)(=O)Nc2ccc3c(c2)C(=O)N([C@H](C)CO)C[C@H](C)[C@@H](CN(C)Cc2ccc(C(F)(F)F)cc2)OCCCC[C@H](C)O3)cc1` it was “active”; in that of `COCC(=O)N(C)C[C@H]1Oc2cc(C#CC(C)(C)O)ccc2S(=O)(=O)N([C@H](C)CO)C[C@H]1C`, “inactive”; in that of `Cc1ccc(S(=O)(=O)Nc2ccc3c(c2)C(=O)N([C@@H](C)CO)C[C@@H](C)[C@H](CN(C)CC2CCCCC2)OCCCC[C@H](C)O3)cc1`, “inactive”. As for `CCCN(C)C[C@@H]1OCCCC[C@@H](C)Oc2ccc(NC(=O)Nc3ccc(C(F)(F)F)cc3)cc2C(=O)N([C@H](C)CO)C[C@@H]1C`, the cytotoxicity call was “active”. Next, `C[C@H](CO)N1C[C@H](C)[C@@H](CN(C)C(=O)Nc2ccc3c(c2)OCO3)Oc2ccc(NC(=O)C3CC3)cc2C1=O`: “inactive”; `COc1ccc2c3c([nH]c2c1)[C@@H](CO)N(C[C@]13CCN(CC1)Cc1ccccc1OC)C(=O)Nc1ccc(cc1)F`: “active”; `C[C@H](CO)N1C[C@H](C)[C@@H](CN(C)Cc2ccc(O)cc2)OCc2ccccc2-c2c(n(C)c3ccccc23)C1=O`: “inactive”.
